This is one part of the list.
Tests used:
Assay in all cases: glycan array binding signal (z-score within array); higher = stronger binding
Settings in all cases: glycan notation: IUPAC condensed, linker removed
[1] = target: Man(a1-2)Man(a1-3)[Man(a1-2)Man(a1-6)]Man(a1-6)[Man(a1-2)Man(a1-2)Man(a1-3)]Man(b1-4)GlcNAc(b1-4)GlcNAc
Procedure, shortened: (§1)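 The binding signal is a Z-score computed within each array and averaged over linkers. Arrays of the same protein sequence at different concentrations or buffers were also averaged together. Data originate from 3228 arrays in the Consortium for Functional Glycomics database, kept only where the protein sequence was available.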

[2] = target: Man(a1-2)Man(a1-3)[Man(a1-6)]Man(a1-6)[Man(a1-2)Man(a1-3)]Man(b1-4)GlcNAc(b1-4)GlcNAc
Procedure, shortened: as §1

[3] = target: Man(a1-2)Man(a1-6)[Man(a1-3)]Man(a1-6)[Man(a1-2)Man(a1-2)Man(a1-3)]Man
Procedure, shortened: as §1

[4] = target: Man(a1-2)Man(a1-6)[Man(a1-3)]Man(a1-6)[Man(a1-2)Man(a1-2)Man(a1-3)]Man(b1-4)GlcNAc(b1-4)GlcNAc
Procedure, shortened: as §1

Man(a1-3)[Man(a1-6)]Man = target: Man(a1-3)[Man(a1-6)]Man
Procedure, shortened: as §1

[5] = target: Man(a1-3)[Man(a1-6)]Man(a1-6)[Man(a1-2)Man(a1-3)]Man(b1-4)GlcNAc(b1-4)GlcNAc
Procedure, shortened: as §1

[6] = target: Man(a1-3)[Man(a1-6)]Man(a1-6)[Man(a1-3)]Man
Procedure, shortened: as §1

[7] = target: Man(a1-3)[Man(a1-6)]Man(a1-6)[Man(a1-3)]Man(b1-4)GlcNAc(b1-4)GlcNAc
Procedure, shortened: as §1

[8] = target: Man(a1-3)[Man(a1-6)]Man(b1-4)GlcNAc(b1-4)GlcNAc
Procedure, shortened: as §1

[9] = target: Man(a1-3)[Man(a1-6)]Man(b1-4)GlcNAc(b1-4)[Fuc(a1-6)]GlcNAc
Procedure, shortened: as §1

Man(a1-6)Man = target: Man(a1-6)Man
Procedure, shortened: as §1

Man(b1-4)GlcNAc = target: Man(b1-4)GlcNAc
Procedure, shortened: as §1

Neu5Ac(a2-3)Gal = target: Neu5Ac(a2-3)Gal
Procedure, shortened: as §1

[10] = target: Neu5Ac(a2-3)Gal(b1-3)GalNAc
Procedure, shortened: as §1

[11] = target: Neu5Ac(a2-3)Gal(b1-3)GalNAc(b1-3)Gal(a1-4)Gal(b1-4)Glc
Procedure, shortened: as §1

[12] = target: Neu5Ac(a2-3)Gal(b1-3)GalNAc(b1-4)[Neu5Ac(a2-3)]Gal(b1-4)Glc
Procedure, shortened: as §1

[13] = target: Neu5Ac(a2-3)Gal(b1-3)GalNAc(b1-4)[Neu5Ac(a2-8)Neu5Ac(a2-3)]Gal(b1-4)Glc
Procedure, shortened: as §1

[14] = target: Neu5Ac(a2-3)Gal(b1-3)GalNAc6S
Procedure, shortened: as §1

[15] = target: Neu5Ac(a2-3)Gal(b1-3)GlcNAc
Procedure, shortened: as §1

[16] = target: Neu5Ac(a2-3)Gal(b1-3)GlcNAc(b1-2)Man(a1-3)[GlcNAc(b1-4)][Neu5Ac(a2-3)Gal(b1-3)GlcNAc(b1-2)Man(a1-6)]Man(b1-4)GlcNAc(b1-4)GlcNAc
Procedure, shortened: as §1

[17] = target: Neu5Ac(a2-3)Gal(b1-3)GlcNAc(b1-3)Gal(b1-3)GlcNAc
Procedure, shortened: as §1

[18] = target: Neu5Ac(a2-3)Gal(b1-3)GlcNAc(b1-3)Gal(b1-4)GlcNAc
Procedure, shortened: as §1

[19] = target: Neu5Ac(a2-3)Gal(b1-3)GlcNAc(b1-3)GalNAc
Procedure, shortened: as §1

[20] = target: Neu5Ac(a2-3)Gal(b1-3)GlcNAc(b1-6)GalNAc
Procedure, shortened: as §1

[21] = target: Neu5Ac(a2-3)Gal(b1-3)GlcNAc6S
Procedure, shortened: as §1

[22] = target: Neu5Ac(a2-3)Gal(b1-3)[Fuc(a1-4)]GlcNAc
Procedure, shortened: as §1

[23] = target: Neu5Ac(a2-3)Gal(b1-3)[Fuc(a1-4)]GlcNAc(b1-3)Gal(b1-3)[Fuc(a1-4)]GlcNAc
Procedure, shortened: as §1

[24] = target: Neu5Ac(a2-3)Gal(b1-3)[Fuc(a1-4)]GlcNAc(b1-3)Gal(b1-4)[Fuc(a1-3)]GlcNAc
Procedure, shortened: as §1

[25] = target: Neu5Ac(a2-3)Gal(b1-3)[Neu5Ac(a2-3)Gal(b1-4)]GlcNAc
Procedure, shortened: as §1

[26] = target: Neu5Ac(a2-3)Gal(b1-3)[Neu5Ac(a2-6)]GalNAc
Procedure, shortened: as §1

[27] = target: Neu5Ac(a2-3)Gal(b1-3)[Neu5Ac(a2-6)]GlcNAc(b1-3)[Fuc(a1-3)[Gal(b1-4)]GlcNAc(b1-6)]Gal(b1-4)Glc
Procedure, shortened: as §1

Neu5Ac(a2-3)Gal(b1-4)Glc = target: Neu5Ac(a2-3)Gal(b1-4)Glc
Procedure, shortened: as §1

[28] = target: Neu5Ac(a2-3)Gal(b1-4)GlcNAc
Procedure, shortened: as §1

[29] = target: Neu5Ac(a2-3)Gal(b1-4)GlcNAc(b1-2)Man
Procedure, shortened: as §1

[30] = target: Neu5Ac(a2-3)Gal(b1-4)GlcNAc(b1-2)Man(a1-3)[GlcNAc(b1-2)Man(b1-4)GlcNAc(b1-2)Man(a1-6)]Man(b1-4)GlcNAc(b1-4)GlcNAc
Procedure, shortened: as §1

[31] = target: Neu5Ac(a2-3)Gal(b1-4)GlcNAc(b1-2)Man(a1-3)[Neu5Ac(a2-3)Gal(b1-4)GlcNAc(b1-2)Man(a1-6)]Man(b1-4)GlcNAc(b1-4)[Fuc(a1-6)]GlcNAc
Procedure, shortened: as §1

[32] = target: Neu5Ac(a2-3)Gal(b1-4)GlcNAc(b1-2)Man(a1-3)[Neu5Ac(a2-6)Gal(b1-4)GlcNAc(b1-2)Man(a1-6)]Man(b1-4)GlcNAc(b1-4)GlcNAc
Procedure, shortened: as §1

[33] = target: Neu5Ac(a2-3)Gal(b1-4)GlcNAc(b1-2)[Neu5Ac(a2-3)Gal(b1-4)GlcNAc(b1-6)]Man(a1-6)[Neu5Ac(a2-3)Gal(b1-4)GlcNAc(b1-2)Man(a1-3)]Man(b1-4)GlcNAc(b1-4)GlcNAc
Procedure, shortened: as §1

[34] = target: Neu5Ac(a2-3)Gal(b1-4)GlcNAc(b1-3)Gal
Procedure, shortened: as §1

[35] = target: Neu5Ac(a2-3)Gal(b1-4)GlcNAc(b1-3)Gal(b1-3)GlcNAc
Procedure, shortened: as §1

[36] = target: Neu5Ac(a2-3)Gal(b1-4)GlcNAc(b1-3)Gal(b1-4)GlcNAc
Procedure, shortened: as §1

[37] = target: Neu5Ac(a2-3)Gal(b1-4)GlcNAc(b1-3)Gal(b1-4)GlcNAc(b1-3)Gal(b1-4)GlcNAc
Procedure, shortened: as §1

[38] = target: Neu5Ac(a2-3)Gal(b1-4)GlcNAc(b1-3)Gal(b1-4)[Fuc(a1-3)]GlcNAc
Procedure, shortened: as §1

[39] = target: Neu5Ac(a2-3)Gal(b1-4)GlcNAc(b1-3)GalNAc
Procedure, shortened: as §1

[40] = target: Neu5Ac(a2-3)Gal(b1-4)GlcNAc(b1-3)[Neu5Ac(a2-3)Gal(b1-4)GlcNAc(b1-6)]GalNAc
Procedure, shortened: as §1

[41] = target: Neu5Ac(a2-3)Gal(b1-4)GlcNAc(b1-6)GalNAc
Procedure, shortened: as §1

[42] = target: Neu5Ac(a2-3)Gal(b1-4)GlcNAc(b1-6)[Gal(b1-3)]GalNAc
Procedure, shortened: as §1

[43] = target: Neu5Ac(a2-3)Gal(b1-4)GlcNAc(b1-6)[Neu5Ac(a2-3)Gal(b1-3)]GalNAc
Procedure, shortened: as §1

[44] = target: Neu5Ac(a2-3)Gal(b1-4)GlcNAc6S
Procedure, shortened: as §1

[45] = target: Neu5Ac(a2-3)Gal(b1-4)[Fuc(a1-3)]GlcNAc
Procedure, shortened: as §1

[46] = target: Neu5Ac(a2-3)Gal(b1-4)[Fuc(a1-3)]GlcNAc(b1-3)Gal
Procedure, shortened: as §1

[47] = target: Neu5Ac(a2-3)Gal(b1-4)[Fuc(a1-3)]GlcNAc(b1-3)Gal(b1-4)GlcNAc
Procedure, shortened: as §1

[48] = target: Neu5Ac(a2-3)Gal(b1-4)[Fuc(a1-3)]GlcNAc(b1-3)Gal(b1-4)[Fuc(a1-3)]GlcNAc(b1-3)Gal(b1-4)[Fuc(a1-3)]GlcNAc
Procedure, shortened: as §1

[49] = target: Neu5Ac(a2-3)Gal(b1-4)[Fuc(a1-3)]GlcNAc(b1-3)GalNAc
Procedure, shortened: as §1

[50] = target: Neu5Ac(a2-3)Gal(b1-4)[Fuc(a1-3)]GlcNAc(b1-6)[Gal(b1-3)]GalNAc
Procedure, shortened: as §1

[51] = target: Neu5Ac(a2-3)Gal(b1-4)[Fuc(a1-3)]GlcNAc6S
Procedure, shortened: as §1

[52] = target: Neu5Ac(a2-3)Gal6S(b1-4)GlcNAc
Procedure, shortened: as §1

B1: Strep tagII-anxA1 (Homo sapiens), P04083 (protein)
chain: MAMVSEFLKQAWFIENEEQEYVQTVKSSKGGPGSAVSPYPTFNPSSDVAALHKAIMVKGVDEATIIDILTKRNNAQRQQIKAAYLQETGKPLDETLKKALTGHLEEVVLALLKTPAQFDADELRAAMKGLGTDEDTLIEILASRTNKEIRDINRVYREELKRDLAKDITSDTSGDFRNALLSLAKGDRSEDFGVNEDLADSDARALYEAGERRKGTDVNVFNTILTTRSYPQLRRVFQKYTKYSKHDMNKVLDLELKGDIEKCLTAIVKCATSKPAFFAEKLHQAMKGVGTRHKALIRIMVSRSEIDMNDIKAFYQKMYGISLCQAILDETKGDYEKILVALCGGN
[1]
  glycan array binding signal (z-score): 0.464
[2]
  glycan array binding signal (z-score): 2.1
[3]
  glycan array binding signal (z-score): -0.63
[4]
  glycan array binding signal (z-score): -0.171
Man(a1-3)[Man(a1-6)]Man
  glycan array binding signal (z-score): -0.433
[5]
  glycan array binding signal (z-score): -0.255
[6]
  glycan array binding signal (z-score): 0.012
[7]
  glycan array binding signal (z-score): -0.658
[8]
  glycan array binding signal (z-score): 0.397
[9]
  glycan array binding signal (z-score): 2.06
Man(a1-6)Man
  glycan array binding signal (z-score): -0.526
Man(b1-4)GlcNAc
  glycan array binding signal (z-score): -0.718
Neu5Ac(a2-3)Gal
  glycan array binding signal (z-score): -0.238
[10]
  glycan array binding signal (z-score): -0.389
[11]
  glycan array binding signal (z-score): 0.255
[12]
  glycan array binding signal (z-score): -0.502
[13]
  glycan array binding signal (z-score): -0.624
[14]
  glycan array binding signal (z-score): -0.417
[15]
  glycan array binding signal (z-score): -0.596
[16]
  glycan array binding signal (z-score): 2.14
[17]
  glycan array binding signal (z-score): -0.701
[18]
  glycan array binding signal (z-score): -0.67
[19]
  glycan array binding signal (z-score): 0.092
[20]
  glycan array binding signal (z-score): 1.8
[21]
  glycan array binding signal (z-score): -0.563
[22]
  glycan array binding signal (z-score): -0.529
[23]
  glycan array binding signal (z-score): -0.656
[24]
  glycan array binding signal (z-score): -0.74
[25]
  glycan array binding signal (z-score): -0.763
[26]
  glycan array binding signal (z-score): 0.669
[27]
  glycan array binding signal (z-score): 0.429
Neu5Ac(a2-3)Gal(b1-4)Glc
  glycan array binding signal (z-score): -0.677
[28]
  glycan array binding signal (z-score): -0.209
[29]
  glycan array binding signal (z-score): 0.94
[30]
  glycan array binding signal (z-score): -0.74
[31]
  glycan array binding signal (z-score): -0.335
[32]
  glycan array binding signal (z-score): -0.474
[33]
  glycan array binding signal (z-score): 2.52
[34]
  glycan array binding signal (z-score): -0.629
[35]
  glycan array binding signal (z-score): -0.641
[36]
  glycan array binding signal (z-score): -0.689
[37]
  glycan array binding signal (z-score): -0.732
[38]
  glycan array binding signal (z-score): -0.696
[39]
  glycan array binding signal (z-score): -0.459
[40]
  glycan array binding signal (z-score): -0.103
[41]
  glycan array binding signal (z-score): -0.535
[42]
  glycan array binding signal (z-score): -0.534
[43]
  glycan array binding signal (z-score): -0.525
[44]
  glycan array binding signal (z-score): -0.626
[45]
  glycan array binding signal (z-score): -0.546
[46]
  glycan array binding signal (z-score): -0.494
[47]
  glycan array binding signal (z-score): -0.575
[48]
  glycan array binding signal (z-score): -0.668
[49]
  glycan array binding signal (z-score): 0.181
[50]
  glycan array binding signal (z-score): -0.451
[51]
  glycan array binding signal (z-score): -0.736
[52]
  glycan array binding signal (z-score): -0.312

— the supplement of paper PMC8728848
